# Among all 150,000 compounds or so, about 540 (0.36%) showed an effect of 50% or more. Some of the results follow.
# System: Plasmodium falciparum
# Test: Primary screen in NF54 nanoGlo assay, in single point, at 2uM, 72h; a lower Z score goes with more inhibition
# Format: functional, Erythrocyte
# Details: timepoint 72 hour
Compound,% Inhibition [%],Z score
c1ccc(-c2ncc(-c3nccn3CCc3c[nH]cn3)s2)cc1,4,-0.58
Cc1nnc(CN(C)C(=O)c2cccc(-c3sc(C)nc3C)c2)o1,6,-0.79
COc1ccc(C(=O)N2CCOCC2)cc1S(=O)(=O)N1CCCCC1,1,-0.22
CC(C)(CNC(=O)Nc1ccccc1)c1ccsc1,-11,2.14
CC1C(O)CC2CCC1N2Cc1ccc(C(=O)O)cc1F (stereo not drawn),9,-1.33
OCCCN(CCO)Cc1ccncc1Cl,-8,0.85
CCCn1cc(C(=O)N2CC[C@@H]3OCc4cccc(c4)Oc4cc(OCC)cc(c4)C(=O)N(C)CC(=O)N[C@@H]3C2)c(C)n1,-3,0.61
CCC(CC)CN(CC)C(=O)c1cnn2c1S(=O)(=O)N(C)CC2,-8,1.46
Cc1ccc2c(=O)n([C@H](c3nccn3C)C3CC3)cnc2c1C,-11,1.72
O=C(N[C@@H](c1ccsc1)c1cccs1)c1cccc(Cl)c1,-7,1.28
CCC1(CC)NC(=O)N(Cc2cn3cc(Cl)ccc3n2)C1=O,-4,0.66
CC(C)(O)CCON=C(N)Cc1ccccc1,11,-1.78
CC(COC1CCOC1)NC(=O)C1CCC(=O)C(C)C1 (stereo not drawn),-1,0.21
O=C(NCCCNc1cccc(F)c1)c1ccc[nH]1,15,-1.71
COc1ccc2c(N3CCn4c(nnc4C(F)F)C3)ncnc2c1F,-4,0.58
COCCN1CCC(CNc2ncccc2C#N)CC1,-15,2.75
CC(CC(=O)C(C#N)C(=O)Nc1ccccc1F)c1ccc(F)cc1 (stereo not drawn),-7,0.97
Cc1nnc(-c2cc(C(C)C)n(-c3ccc(C(=O)NCCC4=CCCCC4)cc3)n2)o1,-23,3.15
Cc1c(Cl)cc(C(=O)N(C)CCc2noc(C3CC3)n2)cc1Cl,-8,1.52
CC[C@H]1C(=O)NCCN1C(=O)c1coc(COc2ccc3c(c2)OCO3)n1,-6,0.85
COCCCn1cnnc1[C@H](C)Nc1ncnc2c1Cc1ccccc1OC2,-14,1.35
COCCC1(CNC(=O)c2cccnc2O[C@@H](C)C(F)(F)F)CC1,-15,1.93
CCN(Cc1cccnc1N(C)C)C[C@H]1CCCO1,-3,0.51
CCO[C@@H](C)c1ncc(-c2nc(C3(OC)CCOCC3)no2)s1,30,-3.34
